Results on 63 sequences are retold here after publication PMC12820563.

This is one part of the list. The list includes weakly bound sequences.

The assay concerns the target T1, MBP-FoxP3dN (UniProt Q99JB6).
T1 sequence: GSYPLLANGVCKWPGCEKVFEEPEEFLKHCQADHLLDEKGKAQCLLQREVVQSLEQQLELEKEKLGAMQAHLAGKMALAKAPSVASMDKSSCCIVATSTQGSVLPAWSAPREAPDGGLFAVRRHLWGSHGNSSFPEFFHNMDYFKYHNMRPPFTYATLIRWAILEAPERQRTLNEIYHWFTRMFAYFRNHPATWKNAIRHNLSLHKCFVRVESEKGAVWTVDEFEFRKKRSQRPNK
Description: PD-seq (MBP pull-down with sequencing). Particulars: 20 mM Tris-HCl pH 7.5, 100 mM NaCl, 1.5 mM MgCl2, 0.4 uM protein, 0.1 uM dsDNA library, 30 min, room temperature, amylose pull-down; high values mean tight binding; double strand, one strand shown.
As for “GATGATTGTTCTCCCAGCTGATGAATTATGGGCATCGAGTAAACAAATTTTCCTAATCTTTCTGTTCAAGCGCCATCTAC”, the binding signal (RPM ratio (pull-down/input)) stood at 0.941.

With “GATGATTGTTCTCCCAGCTGATGAATTCTCGATCTCGAGTAAACAAATTTTCCTAATCTTTCTGTTCAAGCGCCATCTAC”, the binding signal (RPM ratio (pull-down/input)) worked out at 0.255.

As for “GATGATTGTTCTCCCAGCTGATGAATTAGTCTTGTCGAGTAAACAAATTTTCCTAATCTTTCTGTTCAAGCGCCATCTAC”, the binding signal (RPM ratio (pull-down/input)) was determined as 0.801. Regarding “GATGATTGTTCTCCCAGCTGATGAATTGCCCCTCTCGAGTAAACAAATTTTCCTAATCTTTCTGTTCAAGCGCCATCTAC”, the binding signal (RPM ratio (pull-down/input)) stood at 0.499. The result for “GATGATTGTTCTCCCAGCTGATGAATTAATTGGTTCGAGTAAACAAATTTTCCTAATCTTTCTGTTCAAGCGCCATCTAC” reads 3.13; that for “GATGATTGTTCTCCCAGCTGATGAATTGGACTTGTCGAGTAAACAAATTTTCCTAATCTTTCTGTTCAAGCGCCATCTAC”, 0.449. Consider “GATGATTGTTCTCCCAGCTGATGAATTTGGCCGTTCGAGTAAACAAATTTTCCTAATCTTTCTGTTCAAGCGCCATCTAC”, for which the binding signal (RPM ratio (pull-down/input)) is 0.922. Take “GATGATTGTTCTCCCAGCTGATGAATTTTAAGAATCGAGTAAACAAATTTTCCTAATCTTTCTGTTCAAGCGCCATCTAC”: the binding signal (RPM ratio (pull-down/input)) stood at 0.196. Consider “GATGATTGTTCTCCCAGCTGATGAATTCGCTGATTCGAGTAAACAAATTTTCCTAATCTTTCTGTTCAAGCGCCATCTAC”, for which the binding signal (RPM ratio (pull-down/input)) stood at 0.759.

“GATGATTGTTCTCCCAGCTGATGAATTGTATCTATCGAGTAAACAAATTTTCCTAATCTTTCTGTTCAAGCGCCATCTAC”: the binding signal (RPM ratio (pull-down/input)) stood at 2.07. As for “GATGATTGTTCTCCCAGCTGATGAATTTGGCTAATCGAGTAAACAAATTTTCCTAATCTTTCTGTTCAAGCGCCATCTAC”, the binding signal (RPM ratio (pull-down/input)) was 0.364. With “GATGATTGTTCTCCCAGCTGATGAATTGTGCAGCTCGAGTAAACAAATTTTCCTAATCTTTCTGTTCAAGCGCCATCTAC”, the binding signal (RPM ratio (pull-down/input)) worked out at 3.71.

Regarding “GATGATTGTTCTCCCAGCTGATGAATTATGGCCTTCGAGTAAACAAATTTTCCTAATCTTTCTGTTCAAGCGCCATCTAC”, the binding signal (RPM ratio (pull-down/input)) turned out to be 2.06. The result for “GATGATTGTTCTCCCAGCTGATGAATTGTCCATTTCGAGTAAACAAATTTTCCTAATCTTTCTGTTCAAGCGCCATCTAC” reads 0.404.

In the case of “GATGATTGTTCTCCCAGCTGATGAATTCCGGCCGTCGAGTAAACAAATTTTCCTAATCTTTCTGTTCAAGCGCCATCTAC”, the binding signal (RPM ratio (pull-down/input)) was 0.314. The result for “GATGATTGTTCTCCCAGCTGATGAATTGAACGCATCGAGTAAACAAATTTTCCTAATCTTTCTGTTCAAGCGCCATCTAC” reads 1.02; that for “GATGATTGTTCTCCCAGCTGATGAATTAATCTCCTCGAGTAAACAAATTTTCCTAATCTTTCTGTTCAAGCGCCATCTAC”, 0.248; that for “GATGATTGTTCTCCCAGCTGATGAATTTACTTCCTCGAGTAAACAAATTTTCCTAATCTTTCTGTTCAAGCGCCATCTAC”, 0.663. With “GATGATTGTTCTCCCAGCTGATGAATTGCTGGTGTCGAGTAAACAAATTTTCCTAATCTTTCTGTTCAAGCGCCATCTAC” the figure was 0.801.

Regarding “GATGATTGTTCTCCCAGCTGATGAATTTTTCCATTCGAGTAAACAAATTTTCCTAATCTTTCTGTTCAAGCGCCATCTAC”, the binding signal (RPM ratio (pull-down/input)) was 0.299. On to “GATGATTGTTCTCCCAGCTGATGAATTTATGATCTCGAGTAAACAAATTTTCCTAATCTTTCTGTTCAAGCGCCATCTAC”, for which the binding signal (RPM ratio (pull-down/input)) worked out at 3.11. As to “GATGATTGTTCTCCCAGCTGATGAATTCCTACTATCGAGTAAACAAATTTTCCTAATCTTTCTGTTCAAGCGCCATCTAC”, the binding signal (RPM ratio (pull-down/input)) was 0.361. The result for “GATGATTGTTCTCCCAGCTGATGAATTTTTGCTTTCGAGTAAACAAATTTTCCTAATCTTTCTGTTCAAGCGCCATCTAC” reads 0.978; that for “GATGATTGTTCTCCCAGCTGATGAATTTCGAAAGTCGAGTAAACAAATTTTCCTAATCTTTCTGTTCAAGCGCCATCTAC”, 0.231; that for “GATGATTGTTCTCCCAGCTGATGAATTGGGCAGCTCGAGTAAACAAATTTTCCTAATCTTTCTGTTCAAGCGCCATCTAC”, 0.963. Regarding “GATGATTGTTCTCCCAGCTGATGAATTAACCAGTTCGAGTAAACAAATTTTCCTAATCTTTCTGTTCAAGCGCCATCTAC”, the binding signal (RPM ratio (pull-down/input)) came out at 0.215.

For the sequence “GATGATTGTTCTCCCAGCTGATGAATTATTAAGCTCGAGTAAACAAATTTTCCTAATCTTTCTGTTCAAGCGCCATCTAC”, the binding signal (RPM ratio (pull-down/input)) turned out to be 0.301. The result for “GATGATTGTTCTCCCAGCTGATGAATTAGCGCTTTCGAGTAAACAAATTTTCCTAATCTTTCTGTTCAAGCGCCATCTAC” reads 1.25; that for “GATGATTGTTCTCCCAGCTGATGAATTGGTGGCGTCGAGTAAACAAATTTTCCTAATCTTTCTGTTCAAGCGCCATCTAC”, 1.01; that for “GATGATTGTTCTCCCAGCTGATGAATTTATTGTATCGAGTAAACAAATTTTCCTAATCTTTCTGTTCAAGCGCCATCTAC”, 5.25.

With “GATGATTGTTCTCCCAGCTGATGAATTATGTTCATCGAGTAAACAAATTTTCCTAATCTTTCTGTTCAAGCGCCATCTAC”, the binding signal (RPM ratio (pull-down/input)) was found to be 1.09.

For the sequence “GATGATTGTTCTCCCAGCTGATGAATTGTGCTGTTCGAGTAAACAAATTTTCCTAATCTTTCTGTTCAAGCGCCATCTAC”, the binding signal (RPM ratio (pull-down/input)) was found to be 3.6. “GATGATTGTTCTCCCAGCTGATGAATTACTCGCATCGAGTAAACAAATTTTCCTAATCTTTCTGTTCAAGCGCCATCTAC”: the binding signal (RPM ratio (pull-down/input)) stood at 0.838. For “GATGATTGTTCTCCCAGCTGATGAATTGTTGGATTCGAGTAAACAAATTTTCCTAATCTTTCTGTTCAAGCGCCATCTAC”, the binding signal (RPM ratio (pull-down/input)) was determined as 0.772. For the sequence “GATGATTGTTCTCCCAGCTGATGAATTCCGAACGTCGAGTAAACAAATTTTCCTAATCTTTCTGTTCAAGCGCCATCTAC”, the binding signal (RPM ratio (pull-down/input)) turned out to be 0.301. On to “GATGATTGTTCTCCCAGCTGATGAATTAGGTTTCTCGAGTAAACAAATTTTCCTAATCTTTCTGTTCAAGCGCCATCTAC”, for which the binding signal (RPM ratio (pull-down/input)) stood at 1.24. With “GATGATTGTTCTCCCAGCTGATGAATTAAAATACTCGAGTAAACAAATTTTCCTAATCTTTCTGTTCAAGCGCCATCTAC” the figure was 0.458; with “GATGATTGTTCTCCCAGCTGATGAATTCTCCCGGTCGAGTAAACAAATTTTCCTAATCTTTCTGTTCAAGCGCCATCTAC”, 0.148; with “GATGATTGTTCTCCCAGCTGATGAATTTCCATCATCGAGTAAACAAATTTTCCTAATCTTTCTGTTCAAGCGCCATCTAC”, 0.45.

For “GATGATTGTTCTCCCAGCTGATGAATTGATTCTGTCGAGTAAACAAATTTTCCTAATCTTTCTGTTCAAGCGCCATCTAC”, the binding signal (RPM ratio (pull-down/input)) is 0.335. The result for “GATGATTGTTCTCCCAGCTGATGAATTCGTACTATCGAGTAAACAAATTTTCCTAATCTTTCTGTTCAAGCGCCATCTAC” reads 0.576; that for “GATGATTGTTCTCCCAGCTGATGAATTTCAACAATCGAGTAAACAAATTTTCCTAATCTTTCTGTTCAAGCGCCATCTAC”, 0.468; that for “GATGATTGTTCTCCCAGCTGATGAATTTGTCGATTCGAGTAAACAAATTTTCCTAATCTTTCTGTTCAAGCGCCATCTAC”, 1.97. With “GATGATTGTTCTCCCAGCTGATGAATTGGCCGGTTCGAGTAAACAAATTTTCCTAATCTTTCTGTTCAAGCGCCATCTAC” the figure was 0.266; with “GATGATTGTTCTCCCAGCTGATGAATTATTCGGATCGAGTAAACAAATTTTCCTAATCTTTCTGTTCAAGCGCCATCTAC”, 0.255; with “GATGATTGTTCTCCCAGCTGATGAATTATGAGTGTCGAGTAAACAAATTTTCCTAATCTTTCTGTTCAAGCGCCATCTAC”, 1.89. With “GATGATTGTTCTCCCAGCTGATGAATTCGTTAGATCGAGTAAACAAATTTTCCTAATCTTTCTGTTCAAGCGCCATCTAC” the figure was 0.321; with “GATGATTGTTCTCCCAGCTGATGAATTCTCGTTCTCGAGTAAACAAATTTTCCTAATCTTTCTGTTCAAGCGCCATCTAC”, 0.443. For “GATGATTGTTCTCCCAGCTGATGAATTCTCCTACTCGAGTAAACAAATTTTCCTAATCTTTCTGTTCAAGCGCCATCTAC”, the binding signal (RPM ratio (pull-down/input)) turned out to be 0.224. In the case of “GATGATTGTTCTCCCAGCTGATGAATTGGCGAGATCGAGTAAACAAATTTTCCTAATCTTTCTGTTCAAGCGCCATCTAC”, the binding signal (RPM ratio (pull-down/input)) was found to be 0.32. Turning to “GATGATTGTTCTCCCAGCTGATGAATTCGTCCCGTCGAGTAAACAAATTTTCCTAATCTTTCTGTTCAAGCGCCATCTAC”, the binding signal (RPM ratio (pull-down/input)) was found to be 0.54. With “GATGATTGTTCTCCCAGCTGATGAATTTCGCTCTTCGAGTAAACAAATTTTCCTAATCTTTCTGTTCAAGCGCCATCTAC” the figure was 0.502; with “GATGATTGTTCTCCCAGCTGATGAATTAGCGTCTTCGAGTAAACAAATTTTCCTAATCTTTCTGTTCAAGCGCCATCTAC”, 1.21. With “GATGATTGTTCTCCCAGCTGATGAATTTGTCCAATCGAGTAAACAAATTTTCCTAATCTTTCTGTTCAAGCGCCATCTAC” the figure was 0.789; with “GATGATTGTTCTCCCAGCTGATGAATTACCCTCGTCGAGTAAACAAATTTTCCTAATCTTTCTGTTCAAGCGCCATCTAC”, 0.332. For the sequence “GATGATTGTTCTCCCAGCTGATGAATTCTCGTCATCGAGTAAACAAATTTTCCTAATCTTTCTGTTCAAGCGCCATCTAC”, the binding signal (RPM ratio (pull-down/input)) stood at 0.415. For the sequence “GATGATTGTTCTCCCAGCTGATGAATTGCAACAATCGAGTAAACAAATTTTCCTAATCTTTCTGTTCAAGCGCCATCTAC”, the binding signal (RPM ratio (pull-down/input)) came out at 7.74. The result for “GATGATTGTTCTCCCAGCTGATGAATTCAGGTTATCGAGTAAACAAATTTTCCTAATCTTTCTGTTCAAGCGCCATCTAC” reads 0.656; that for “GATGATTGTTCTCCCAGCTGATGAATTCATCTACTCGAGTAAACAAATTTTCCTAATCTTTCTGTTCAAGCGCCATCTAC”, 0.562. With “GATGATTGTTCTCCCAGCTGATGAATTTCTGTTCTCGAGTAAACAAATTTTCCTAATCTTTCTGTTCAAGCGCCATCTAC”, the binding signal (RPM ratio (pull-down/input)) was found to be 0.518. The result for “GATGATTGTTCTCCCAGCTGATGAATTGTATATCTCGAGTAAACAAATTTTCCTAATCTTTCTGTTCAAGCGCCATCTAC” reads 3.03. For “GATGATTGTTCTCCCAGCTGATGAATTATTATGTTCGAGTAAACAAATTTTCCTAATCTTTCTGTTCAAGCGCCATCTAC”, the binding signal (RPM ratio (pull-down/input)) was 1.3.

As to “GATGATTGTTCTCCCAGCTGATGAATTTGTTGCCTCGAGTAAACAAATTTTCCTAATCTTTCTGTTCAAGCGCCATCTAC”, the binding signal (RPM ratio (pull-down/input)) turned out to be 7.02.
